Assay results published in PubChem BioAssay AID624296 (National Center for Advancing Translational Sciences (NCATS), 2012).
The whole screen tested about 350,000 compounds, of which about 9,900 (2.8%) were called active. Inconclusive results, whose numbers are uncertain, are shown with a selection of clear calls. Calls come from the whole dose curve; as a rule, active = well fitted activation curve with a large enough effect; inconclusive = small, poorly fitted or top-dose-only effect; inactive = no such curve, though single readings can be large or run the other way. Potencies of inconclusive entries are left out as doubtful fits.

Experiment: A quantitative high throughput screen for small molecules that induce DNA re-replication in MCF 10a normal breast cells. Note: nearly all actives have a fitted effect of over 50% in size.
Conditions: MCF 10A DNA re-replication, Hoechst nuclear intensity, 48 h; series mostly up to 46.1 µM
Potency is the fitted concentration of half-maximal effect; tags give direction and shape of the fitted curve.

SMILES	Potency
CCc1cc2c(Nc3ccc(O)cc3)nc(C)nc2s1	inactive
Cc1oc2c(c1C(=O)NCc1cccnc1)C(=O)c1ccccc1C2=O	inconclusive [activator, full curve, poor fit]
CC(C(=O)Nc1ccccc1F)N1CCN(S(=O)(=O)c2ccc(C(F)(F)F)cc2)CC1 (stereo unspecified)	inactive
c1ccc(-c2nnc(N3CCOCC3)nc2-c2ccccc2)cc1	inactive
CC(COc1cccc2ccccc12)CN1CCN(C)CC1 (stereo unspecified)	inconclusive [activator, partial curve]
CCCCN1C(=O)/C(=C2\SC(N3CCCCC3)=NC2=O)c2ccccc21	inconclusive [activator, single point]
Cc1ccc(-n2ncc3c(SCC(N)=O)ncnc32)cc1C	inactive
Cn1c(=O)n(C)c2cc(NC(=O)CSc3nc4ccccc4c(=O)[nH]3)ccc21	inconclusive [activator, partial curve]
O=C(OCc1ccc([N+](=O)[O-])cc1)c1cc([N+](=O)[O-])ccc1N1CCOCC1	inconclusive [activator, single point]
CCSc1nnc(CNC(=O)C23CC4CC(CC(C4)C2)C3)n1Cc1ccccc1	inconclusive [activator, single point]
O=C(Nc1ccccc1-c1nc2ccccc2s1)c1ccco1	inconclusive [activator, single point]
O=[N+]([O-])c1cc(S(=O)(=O)Oc2ccccc2)ccc1Cl	inconclusive [activator, full curve, poor fit]
CCC(C)(C)NC(=O)CN(C(=O)c1csnn1)c1cccc2c1CCCC2	inconclusive [activator, single point]
CC1(C)CC(=O)c2cc(C(=O)NNc3ccccc3)c(=O)n(-c3ccccc3)c2C1	inconclusive [activator, single point]
CCOC(=O)n1c(=O)n(Cc2ccc(Cl)cc2Cl)c2ccccc21	inconclusive [activator, partial curve, poor fit]
CCOc1ccc(N2CC(C(=O)Nc3nnc(C4CCCCC4)s3)CC2=O)cc1 (stereo unspecified)	inactive
CCc1cccc(OCC(=O)Nc2cc(Cl)ccc2-n2cncn2)c1	inconclusive [activator, single point]
Nn1c(SCC(=O)NCC2CCCO2)nnc1-c1ccc(OC(F)F)cc1 (stereo unspecified)	inconclusive [activator, single point]
CCC(C)(c1nnnn1-c1c(C)cccc1C)N(N=O)c1ccccc1Cl (stereo unspecified)	inconclusive [activator, partial curve, poor fit]
CCc1ccc(CN2CCCC(C(=O)N3CCCCC3)C2)cc1 (stereo unspecified)	inactive
CCCNC(=O)c1ccccc1NC(=O)c1ccc(CSc2ccccc2)cc1	inconclusive [activator, single point]
COc1ccccc1-c1nc(C#N)c(N2CCCCCC2)o1	inconclusive [activator, partial curve, poor fit]
CN1CCc2c(sc(/N=C/c3cc(Cl)ccc3O)c2C#N)C1	inconclusive [activator, single point]
O=S(=O)(c1ccc2c(c1)OCCO2)N1CCN(S(=O)(=O)c2ccccn2)CC1	inconclusive [activator, full curve, poor fit]

SMILES	Potency
FC(F)Oc1ccccc1/C=N/n1cnc2ccccc21	inactive
Cc1ccc(CNC(=O)C2CC(c3cccc([N+](=O)[O-])c3)=NO2)o1 (stereo unspecified)	inconclusive [activator, single point]
CN1CCN(S(=O)(=O)c2cc(Cl)c(Cl)cc2Cl)CC1	inactive
O=C(N/N=C/c1c[nH]c2ccccc12)c1cc(Cl)ccc1O	inactive
CCCCc1ccc(NC(=O)CN(C)CC(=O)Nc2ccccc2Cl)cc1	inconclusive [activator, single point]
CCCNC(=O)OCCC12CC3CC(CC(C3)C1)C2	inconclusive [activator, partial curve, poor fit]
CC(=O)C1=NN(c2ccccc2)C2(S1)S/C(=C\c1ccccc1)C(=O)N2c1ccccc1 (stereo unspecified)	inconclusive [activator, full curve]
Cc1nn(-c2ccccc2)c2sc(C(=O)N(CC(=O)NC3CCCC3)Cc3ccco3)cc12	inconclusive [activator, single point]
CC(C)NC(=S)NC(=O)/C=C/c1ccc(F)cc1	inconclusive [activator, partial curve, poor fit]
CC1=NNC(=O)/C1=C\c1cn(-c2ccccc2)nc1-c1cccs1	active: 2.59 µM
Cc1ccc(C)c(S(=O)(=O)Nc2ccccc2C(=O)Nc2ccccc2N2CCOCC2)c1	inconclusive [activator, single point]
O=C(Cc1nc2ccccc2[nH]1)NCc1ccco1	inconclusive [activator, single point]
O=c1[nH]c2ccc(NC(=S)Nc3ccccc3)cc2[nH]1	inactive
CC(=O)c1cc(-c2ccccc2)[nH]c1N1CCOCC1	inconclusive [activator, single point]
C/C(=N/NC(=O)c1ccc(Cl)s1)c1ccc(NC(=O)COc2ccc(Cl)cc2)cc1	inconclusive [activator, full curve]
O=C(NCc1csc2ccccc12)Nc1cc(Cl)cc(Cl)c1	inconclusive [activator, single point]
COC(=O)C1=CN(C(C)c2ccccc2)C=C(C(=O)OC)C1c1cc(OC)c(OC)c(OC)c1 (stereo unspecified)	inconclusive [activator, single point]
CN(CCOc1ccc(Cl)cc1)C(=O)c1cc(-c2ccco2)nc2ccccc12	inconclusive [activator, single point]
CCCCNc1c(-c2cccc(SC3CCCCC3)c2)nc2ccc(Cl)cn12	active: 25.9 µM
Cc1cccc(NC(=O)NC2CCCc3ccccc32)c1 (stereo unspecified)	inconclusive [activator, partial curve, poor fit]
COc1ccc(C)cc1NC(=O)CNc1ccccc1CN(C)C1CCCCC1	inconclusive [activator, single point]
O=C(NCCc1ccccc1)c1ccc(-c2ccccc2Cl)o1	inconclusive [activator, single point]
COc1ccc(N2CCN(C(c3cc(OC)ccc3OC)c3nnnn3Cc3ccco3)CC2)cc1 (stereo unspecified)	inconclusive [activator, partial curve, poor fit]
CCN(CC)CCCn1c2c(c(SCC(=O)Nc3cc(C)on3)nc1=O)CCC2	inconclusive [activator, single point]

SMILES	Potency
CC(=O)c1sc2nc(-c3cccs3)cc(C(F)(F)F)c2c1N	inactive
O=C(c1ccc2nc(N3CCOCC3)sc2c1)N1CCCC1	inactive
COc1ccccc1CN(C)C(=O)c1ccccc1Sc1ccccc1C#N	inconclusive [activator, single point]
CSCCCN1CCCC(CO)(Cc2ccc(F)cc2)C1 (stereo unspecified)	inactive
COc1ccc(-n2ncc3c(=O)n(CC(=O)NC(C)C)cnc32)cc1	active: 0.92 µM
O=C(NC1CCN(Cc2ccccc2)CC1)c1cccc(NS(=O)(=O)c2ccc(Br)cc2)c1	inactive
Cn1ncc2c(=O)[nH]nnc21	inactive
Cc1ccc(S(=O)(=O)Nc2ccccc2-c2ccccc2)cc1	active: 1.3 µM
CCCCC1C(=O)N(c2ccccc2)N(c2ccc(O)cc2)C1=O (stereo unspecified)	inconclusive [activator, single point]
N[C@H]1CONC1=O	inactive
Cc1nc(NC(=O)c2ccco2)sc1-c1csc(Nc2ccc(Cl)cc2)n1	inactive
Cc1ccc(C)c(S(=O)(=O)N2CCN(CC(=O)NC(C)c3ccccc3)CC2)c1 (stereo unspecified)	inactive
C/C(=C(/NC(=O)c1ccccc1)C(=O)O)c1ccco1	inconclusive [activator, partial curve, poor fit]
COc1ccc(CN(C2CCCC2)S(=O)(=O)c2ccc(-n3cnnn3)cc2)cc1	inconclusive [activator, single point]
CCc1nn2c(=O)cc(COc3ccc(/C=C4\C(=N)N5N=C(C)SC5=NC4=O)cc3)nc2s1	inconclusive [activator, partial curve, poor fit]
COc1ccc(-n2c(-c3cccc(OC)c3)nc(=S)c3c2CCCC3)cc1	inconclusive [activator, single point]
O=C(COC(=O)c1ccc2[nH]c3c(c2c1)CCCC3)Nc1ccccc1	active: 23.1 µM
O=S1(=O)N=C(Nc2nc3c(s2)CCCC3)c2ccccc21	inactive
CC(=O)Nc1cccc(C(=O)/C=C/c2ccc(N(C)C)cc2)c1	inconclusive [activator, single point]
COc1ccc(/C=N/Nc2nc(Nc3ccccc3)nc(N3CCCC3)n2)cc1[N+](=O)[O-]	inconclusive [activator, single point]
c1ccc(-c2nc(N3CCCC3)nc3ccccc23)cc1	active: 23.1 µM
CC(C)(CNC(=O)c1cc(Cl)c(O)c(Cl)c1)N1CCCCC1	inactive
Cc1ccsc1C(=O)Nc1ccc(OCc2ccccc2)cc1	inactive
